About 10 (0.8%) of roughly 1,200 compounds were called active. Inconclusive results (about 4%) are left out. Calls come from the whole dose curve; as a rule, active = well fitted inhibition curve with a large enough effect; inconclusive = small, poorly fitted or top-dose-only effect; inactive = no such curve, though single readings can be large or run the other way. This is one part of the list.
Experiment: qHTS Assay to Find Inhibitors of Chronic Active B-Cell Receptor Signaling: Hit Validation in OCI-Ly3 Assay
Details: OCI-Ly3 IkB-luciferase reporter, Chroma-Glo luminescence, 4 h; series mostly up to 46.1 µM; activity change, negative = inhibition: at the top concentration
Method in brief: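 Readout is dual-colour luminescence: IkB-alpha-luciferase fusion (green) against unfused luciferase (red), plus their ratio, scaled between basal cells and 10 uM MG-132. OCI-Ly3 cells, 0.5% FBS IMDM, compound with doxycycline (80ng/ml solution), 4 hrs at 37C; curves fitted and classed.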
% is set by controls: 0 for no effect and ±100 for the full control effect.

Activity change, negative = inhibition, inactive:
CCOc1cc(C(=O)N/N=C(\C)Cc2ccc(OC)cc2)cc(OCC)c1OCC -0.984%, Cc1cccc(-n2c3nc(=O)[nH]c(=O)c-3cc3cc([N+](=O)[O-])ccc32)c1 -5.22%, O=C(NC(=S)N1CCOCC1)c1cn(-c2ccccc2)nc1-c1ccccc1 -2.27%, COc1ccc(-c2csc(C3=C(O)CN(CCCN4CCCC4=O)C3=N)n2)cc1OC -0.974%, COc1cc(OC)cc(C(=O)NCc2ccc3c(c2)CCN3C(=O)c2ccccc2)c1 -1.1%, O=C(CSc1cccc[n+]1[O-])c1ccc(Cl)s1 -0.515%, O=C(/C=C/c1ccco1)NC(=S)Nc1cccc(-c2nc3ccccc3o2)c1 -3.6%, COc1ccc(NC(=S)N/N=C/c2ccc(F)c(F)c2)cc1 -0.784%, Cc1ccc(NC(=S)NNC(=S)Nc2ccc(C)cc2C)cc1 -5.8%, CCOc1ccccc1N=NC1C(=O)N(C(N)=S)N=C1C (stereo not given) 0.548%, CCOC(=O)c1[nH]c(C)c(C(=O)Nc2cc(Cl)ccc2C)c1C -1.25%, CCCc1noc2c1C(c1ccoc1)C(C#N)=C(N)N2 (stereo not given) -1.84%, COc1ccccc1CNC(=O)CSc1ccc(Br)cc1 0.0236%, Cc1nn(CCC(=O)NNC(=S)Nc2ccccc2)c(C)c1Br 0.0269%, Cc1c(C(=O)OCC(C)C)[nH]c2c1C(=O)CC(c1cccs1)C2 (stereo not given) -0.184%, CCC(C)n1c(NC(=O)c2ccccc2)c(C#N)c2nc3ccccc3nc21 (stereo not given) -1.44%, C[C@H](Cc1ccccc1)Nc1ncnc2c1ncn2[C@@H]1O[C@H](CO)[C@@H](O)[C@H]1O -0.284%, COc1cc(-c2c(-c3cc(OC)c(OC)c(OC)c3)noc2C)ccc1F -4.21%, Oc1cccc(Nc2nc(N3CCOCC3)nc(N3CCOCC3)n2)c1 -3.59%, NC(=S)N/N=C/c1ccccc1OC(=O)/C=C/c1ccccc1 -2.49%, O=C(c1cc([N+](=O)[O-])ccc1N1CCOCC1)N1CCN(c2ccccc2)CC1 -2.33%, COc1ccc(-c2c(C)c3ccc(O)cc3oc2=O)cc1OC 1.38%, Cc1ccc(Cl)cc1NC(=S)N/N=C/c1cccc2ccccc12 -2.62%, Cc1cc2c(cc(C(=O)OCC(=O)NCc3cccs3)n2C(C)C)o1 -2.7%, COC(=O)c1cc(C#N)c(N(C)Cc2ccccc2)nc1C -1.12%, O=C(N/N=C/c1ccc(O)cc1)c1[nH]c2ccc(Br)cc2c1-c1ccccc1 -7.64%, CCCCCOC(=O)c1[nH]c2c(c1C)C(=O)CC(c1ccco1)C2 (stereo not given) -1.57%, NNC(=O)/C(=C\c1ccco1)NC(=O)c1ccco1 -1.05%, Cc1ccc2[nH]c(-c3ccccc3)cc(=O)c2c1 -6.88%, Cc1csc(NC(=S)NC(=O)c2ccccc2)n1 -1.5%, CC[C@@H]1Cc2cc(O)ccc2C2=C1c1ccc(O)cc1C[C@H]2CC 0.595%, CCOC(=O)c1[nH]c(C)c(C(=O)c2cc(F)ccc2F)c1C -2.9%, O=C(/C=C\c1ccco1)Nc1cc([N+](=O)[O-])ccc1F -2%, COc1ccc([C@H]2CC(=O)C=C(c3ccc(OC)cc3OC)C2)cc1 -5.5%, CCOc1nc(OCC)nc(N2CCC(C)CC2)n1 -0.491%, Cc1c(CCC(=O)NCCCC(=O)O)c(=O)oc2cc3oc4c(c3cc12)CCCC4 0.133%, CC1CCC2C(=O)N(c3ccc(C(=O)Oc4cccc5cccnc45)cc3)C(=O)C2C1 (stereo not given) -1.75%, Cc1ccccc1OCCc1c(C)[nH]c(=S)[nH]c1=O -3.08%, COc1cc2cnc(-c3ccccc3)cc2cc1OC -8.58%, N#Cc1cccc2c1-c1ccccc1/C2=N/NC(N)=S 1.03%, CN1CCN(C(=S)NC(=O)c2ccc(-c3ccccc3)cc2)CC1 -29.4%, COc1ccc(C)cc1Nc1cc(C)nc2ncnn12 -1.77%, C=CCC(CC(O)COCCC)C(=O)NNC(=S)Nc1ccccc1 (stereo not given) -1.36%, CCC1=Nc2cc(C(=O)NCc3ccco3)ccc2Sc2ccc(Cl)cc21 -6.28%, CCOc1ccc2nc(NC(=O)c3ccc(OC)c(S(=O)(=O)N4CCOCC4)c3)sc2c1 -1.16%, Cn1c(=S)c2[nH]c(SCCN3CCCC3)nc2n(C)c1=O -0.216%, S=C(Nc1ccccc1)c1nc2ccccc2s1 -0.921%, CC(=O)Nc1nc2ccc(-c3nc4ccccc4o3)cc2s1 -1.68%, Cc1noc(C)c1CSc1ccc2ccccc2n1 -2.35%, COc1cc(C(CCN2CCOCC2)c2c(OC)cc(OC)c3c(-c4ccccc4)cc(=O)oc23)cc(OC)c1OC (stereo not given) -1.16%, COc1ccccc1-c1cc(C(=O)NCCc2ccccc2)no1 -4.78%, COc1cc(-c2noc(C)c2C#Cc2ccc(N)cc2)cc(OC)c1OC -8.49%, CC[C@]12c3[nH]c4cc(CCC(=O)N(C)C)ccc4c3CCN1C(=O)[C@@H](CC(=O)NCCc1ccccn1)C[C@@H]2C(=O)N1CCN(C(=O)C2CC2)CC1 0.416%, COc1ccc(CN2C[C@H]3CCCN3c3cc(Br)ccc3S2(=O)=O)cc1 -3.64%, Cc1ccc(OC/C(=N\O)C(C)(C)C)c([N+](=O)[O-])c1 -0.43%, CCc1nnc(NC(=S)Nc2ccccc2)s1 23.9%, COc1cc2c(cc1OC)C(c1cc3cc(OC)c(OC)cc3[nH]c1=O)N(C(=O)C1CC1)CC2 (stereo not given) -0.249%, Oc1c(CN2CCN(c3ccccc3)CC2)cc(Br)c2cccnc12 -2.02%, S=C(Nc1ccccc1Cl)N(Cc1ccccc1)Cc1ccccn1 -1.33%, Cc1ccccc1C1=NC(C(F)(F)F)(C(F)(F)F)c2c(n(C)c(=O)n(C)c2=O)N1 0.327%, CCc1ccc(N2CC(C(=O)OCC(=O)Nc3ccccc3C)CC2=O)cc1 (stereo not given) -0.558%, COc1cccc(C2NC(=S)NC(C)=C2C(=O)c2ccccc2)c1OC (stereo not given) -1.95%, COc1cc(NC(=S)NC(=O)c2ccccc2F)ccc1NC(=O)c1ccco1 0.561%, Cc1cc(C)c(C#N)c(SCc2c(F)cccc2[N+](=O)[O-])n1 -2.3%, Cc1nc(NC(=S)Nc2ccccc2)sc1C 31.6%, CC1=Nc2cc(C(=O)NCc3ccco3)ccc2Sc2ccc(C)cc21 -2.52%, C/C(CCC(C)C)=N\NC(=O)COc1ccccc1-c1ccccc1 -1.78%, N#Cc1ccccc1NC(=O)c1cccc(COc2ccc(Cl)cc2Cl)c1 -2.77%, C=CCOc1ccc(/C=C2\SC(N)=NC2=O)cc1OC -0.265%, CCOc1ccc2nc(NC(=O)c3ccccn3)sc2c1 14.3%, Cc1ccc(C(=O)O)cc1NC(=S)NC(=O)C(c1ccccc1)c1ccccc1 -0.348%, NNC(=O)c1[nH]c2ccc(Cl)cc2c1-c1ccccc1 -2.64%, Cc1cccc(OCCN2C(=O)C(=O)c3cc(C)ccc32)c1 -1.66%, O=C(COc1ccc(C(=O)c2ccccc2)cc1)NCc1ccc(F)cc1 -3.78%, Cc1ccccc1NC(=S)NCc1ccc2c(c1)cc(C)n2C -2.83%, CCOc1ccc(C(=O)NC(=S)Nc2cccc(S(=O)(=O)NC3=NCCC3)c2)cc1 -4.42%, CCOc1cc(/C=N\NC(N)=O)cc(Br)c1OC(C)C -0.42%, Cc1nn(CCC(=O)NNC(=S)NCC(C)C)c(C)c1Br -0.205%, COc1ccccc1CNS(=O)(=O)c1ccc(-c2cc(C)no2)cc1 -2.61%, CCCC1=Nc2cc(C(=O)NCCCOCC)ccc2Sc2ccccc21 -2.7%, CC1=Nc2cc(C(=O)NC3CCCC3)ccc2Sc2ccc(Cl)cc21 -3.13%, Cc1onc(-c2ccccc2)c1-c1nc2cc(Cl)ccc2c(=O)o1 -14.1%, CC[C@@H](C)[C@H](NC(=O)CCc1c(C)c2cc3c4c(oc3c(C)c2oc1=O)CCCC4)C(=O)O -0.106%, CCN(CC)c1ccc(NC(=O)c2cc(OC)cc(OC)c2)c(C)c1 -1.39%, COc1cc2c(c(OC)c1OC)-c1ccc(OC)c(=O)cc1C(NC(C)=O)CC2 (stereo not given) -3.28%, COC(=O)c1cnc(Oc2ccc(NC(=O)NC(=O)c3c(OC)cccc3OC)cc2)cc1C(F)(F)F -1.81%, Cc1cc(SCC#N)n2nc(C)c(-c3ccccc3)c2n1 -1.85%, COc1cc(OC)c2c(c1)OC(=O)CC2c1cc(OC)c(OC)c(OC)c1 (stereo not given) -1.85%, COc1ccc(C2CC(=O)Oc3cc(OC)c(OC)c(OC)c32)cc1 (stereo not given) -3.69%, Cc1ccccc1N=Nc1c(C)[nH]n(C(N)=S)c1=O 0.673%, CCCCC(=O)NC(=S)Nc1nnn(CCC)n1 0.346%, O=C(Oc1c(Cl)cc(Cl)c2cccnc12)c1cccs1 -6.54%, O=C(O)CCCCCCCCc1cn(Cc2ccc(C(=O)c3ccccc3)cc2)nn1 -2.2%, COC(=O)CCC(=O)NC(=S)Nc1sc(C)c(C)c1C(N)=O -1.47%, CC(C)Sc1ccccc1C(=O)Nc1ccc2c(c1)n(C)c(=O)n2C -6.52%, CCOC(=O)c1c(C)sc2c1N(C(C)=O)c1cc(Cl)ccc1S2 -1.47%, CC1=Nc2cc(C(=O)NCC3CCCO3)ccc2Sc2ccc(C)cc21 (stereo not given) -2.23%, Cc1nnc(C)n1/N=C/c1cc2ccccc2nc1Cl -2.19%, C#CCOc1ccc(C2C3=C(COC3=O)Nc3cc4c(cc32)OCO4)cc1OC (stereo not given) -3.1%, Cc1ccc(/C=N/NC(=O)COc2ccccc2-c2ccccc2)cc1 -0.917%, COc1cccc(N2CCN(C(=O)c3ccc(CS(=O)c4ccccc4C)o3)CC2)c1 (stereo not given) -3.35%, NNC(=O)c1[nH]c2ccccc2c1-c1ccccc1 -4.38%, COc1ccc(NC(=O)C(=O)c2cn(CC(=O)N3CCCC3)c3ccccc23)cc1 -8.07%, CCCCOc1ccc(Br)cc1/C(C)=N/NC1=NCCN1 -0.15%, CCn1ncc(C2=NOC(C(=O)NCc3ccc(Cl)cc3)C2)c1C (stereo not given) -2.34%, CCn1c2ccccc2c2cc(Nc3cc(C)nc4ncnn34)ccc21 -8.56%, Cc1cccc(C)c1-n1c(C)cc(/C=N/NC(N)=S)c1C -0.724%, CCOC(=O)Cc1csc(NC(=S)NC(=O)c2ccccc2)n1 -1.09%, O=C(CSc1nc2ccccc2c(=O)n1-c1ccccc1F)NC1CC1 -0.149%, CCOc1cc(-c2cc(-c3ccc(NC(C)=O)cc3)nc(N)c2C#N)ccc1O -2.41%

Source: PubChem BioAssay AID651567 (National Center for Advancing Translational Sciences (NCATS), 2012)
